TGI and GI50 data for 75 compounds are collected here from PubChem BioAssay (NCI).

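Grown in 96-well plates, cells were treated for 48 hours with each compound at five concentrations. Insufficient inhibition: endpoint recorded as highest concentration tested. Here, GI50 denotes the concentration required for 50% inhibition of growth. TGI denotes the concentration required for complete inhibition of growth.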 Peptide text beside a SMILES is read from it. Some results are limits rather than exact numbers.

This assay has as its system NCI-H322M lung. The experiment in a line: DTP human tumour cell line panel, 48 h.
`c1ccc(CCN2CCOCC2)nc1`: the TGI was over 100 µM.

`Cc1c(NC(=O)c2cc([N+](=O)[O-])cc([N+](=O)[O-])c2)c(=O)n(-c2ccccc2)n1C` yielded a TGI of over 100 µM.

Regarding `N#C/C(C(=S)Nc1ccccc1)=C(/N)N1CCCC1`, the TGI is over 100 µM.

In the case of `O=C1c2cc([N+](=O)[O-])cc3cc([N+](=O)[O-])cc(c23)C(=O)N1CCCNCCNCCCN1C(=O)c2cc([N+](=O)[O-])cc3cc([N+](=O)[O-])cc(c23)C1=O`, the total growth inhibition concentration (TGI) stood at 6.84 µM.

In the case of `CCOC(=O)N1CCN(c2nc(C)n(-c3ccccc3)c(=S)c2C#N)CC1`, the TGI is over 100 µM.

`N#CCCSC(=S)C1CCCC1=N` (centres undefined) gave a TGI of over 100 µM.

`NC1=CC(=O)c2nc3ccccc3c3ccnc1c23`: the GI50 is 0.673 µM and the TGI worked out at 24 µM.

As for `CC(C(=O)O)/C(=C\c1ccc2c(c1)OCO2)C(=O)O` (centres undefined), the concentration for total growth inhibition (TGI) is over 67.3 µM.

As for `O=C(Nc1ccc(OCc2nnc(-c3ccccc3)o2)c(F)c1)Nc1ccc(Cl)c(C(F)(F)F)c1`, the GI50 was 2.25 µM and the TGI worked out at 8.58 µM.

`COC(=O)CS(=O)c1ccccc1` (centres undefined) returned a TGI of over 100 µM.

Compound `Cc1nc2c(O)cc3c4c(n(Cc5ccccc5)c3c2nc1C)C(=O)CCC4` yielded a TGI of over 100 µM.

In turn, `CCOC(=O)c1c(-c2ccccc2)nc2c(OC)nccn12` gave a TGI of over 100 µM.

Compound `CN=C(N)/N=C(\N)Nc1cc2ccccc2c2ccccc12` had a TGI of 30 µM.

`O=C(O)c1ccccc1-c1ccccc1C(=O)Nc1ccc2c(c1)[nH]c(=O)c1ccccc12` registered a TGI of over 100 µM.

As for `CCn1c(-c2nonc2N)nc2cncc(C(=O)NCCNC)c21`, the GI50 is 2.48 µM and the TGI is over 23.7 µM.

Turning to `Cc1ccc(NC2=C(Cl)C(=O)N(Cc3ccccc3)C2=O)cc1Cl`, the GI50 is 13.8 µM and the TGI came out at 28.9 µM.

`CSc1nc(C)c(Br)c(=O)n1C1OC(COC(C)=O)C(OC(C)=O)C(OC(C)=O)C1OC(C)=O` (centres undefined) came in with a TGI of over 100 µM.

Take `COC(=O)c1ccc(COC(=O)N2C=CCC2C(=O)O)cc1` (centres undefined): the TGI was over 100 µM.

Consider `Nc1cccc2c1C1=NNC(=O)CC1C2` (centres undefined), for which the concentration for total growth inhibition (TGI) is over 100 µM.

`CC(=O)O[C@H]1CC[C@@]2(C)C(=C[C@H](c3ccc(O)cc3)[C@H]3[C@@H]4CC[C@H](OC(C)=O)[C@@]4(C)CC[C@@H]32)C1` showed a TGI of 38.2 µM.

`CCCCCNC(=O)c1c(O)[nH]c(=S)[nH]c1=O`: the TGI was over 100 µM.

In turn, `CC1=CC(=O)C(=CN2C(=O)/C(=C\c3cccnc3)NC2=S)C(=O)O1` yielded a TGI of over 100 µM.

On to `Cc1c(-c2nnc(-c3ccc(F)cc3)o2)nnn1-c1ccnc2c(C(F)(F)F)cccc12`, for which the GI50 is 67.1 µM and the TGI is over 100 µM.

As for `CC1=CC(=O)c2c(C=O)c(O)c(O)c(C(C)C)c2C1=O`, the TGI is over 100 µM.

As for `S=C(c1ccc2c(c1)OCO2)N1CCN(c2cccc(Cl)c2)CC1`, the GI50 was 4.28 µM and the TGI is over 100 µM.

For `COC(=O)Cc1c(/C=C/C(C)(C)n2cnc(CCN3C(=O)CCC3=O)c2)[nH]c2ccccc12`, the TGI was over 100 µM.

The compound `CC(=O)N1CC(=O)NC1=S` registered a total growth inhibition concentration (TGI) of over 100 µM.

`O=C1CC[C@H](c2ccc(O)c3c2C(=O)[C@@H]2O[C@@H]2C3=O)c2cccc(O)c21`: the GI50 was 13.6 µM and the TGI was found to be 29.1 µM.

For `NC(=O)Nc1ccc(C(=O)NCCCNC(=O)c2ccc(NC(N)=O)cc2)cc1`, the TGI was over 100 µM.

As for `Cn1ccnc1C(=O)/C=C/c1ccc(CC(=O)Nc2ccc(F)cc2)cc1`, the GI50 is 2.07 µM and the TGI came out at 5.5 µM.

For `CC(C)n1c(=O)n(C)c2cnc3cc(F)c(-c4ccc(OCCCN5CCCCC5)nc4)cc3c21`, the GI50 was 13 µM and the TGI was 42.3 µM.

The compound `C/C=C1/CN2CCC34c5ccccc5N(C)C23C2CC1C4(C(=O)OC)C(O)O2` (centres undefined) registered a TGI of over 100 µM.

As for `CCN(CC)CCCCNc1ncc2cc(-c3cc(OC)cc(OC)c3)c(NC(=O)NC(C)(C)C)nc2n1`, the GI50 is 5.57 µM and the concentration for total growth inhibition (TGI) was 19.5 µM.

As for `CC(C)[C@@H](C(=O)N1CCC[C@H]1C(=O)OCc1ccccc1)N(C)C(=O)[C@H](C(C)C)N(C)C(=O)[C@H](Cc1ccccc1)N(C)C(=O)[C@H](NC(=O)OC(C)(C)C)C(C)C` (HELM PEPTIDE1{[CC(C)(C)OC(=O)[*:2]].[dV].[meF].[meV].[meV].P.[c1ccc(CO[*:1])cc1]}$$$$V2.0), the TGI was over 100 µM.

With `N#Cc1c(N)nc(NCc2ccccc2)c(C#N)c1-c1ccccc1Cl`, the GI50 is 40.6 µM and the TGI was over 100 µM.

Take `CN(C)C1(N(C)C)Oc2c(c(=O)n(C)c(=O)n2C)C(c2ccccc2Br)C1(F)F` (centres undefined): the TGI is over 100 µM.

On to `CCCC1=C(C(=O)OCC)C(c2ccccc2OC)C(C#N)=C(N)O1` (centres undefined), for which the GI50 was over 100 µM and the TGI is over 100 µM.

Take `CC[C@H](C)[C@H](NC(=O)[C@H](CCCCN)NC(=O)[C@H](CCCCN)NC(=O)[C@@H](NC(=O)[C@@H](NC(=O)[C@@H](N)Cc1cnc[nH]1)[C@@H](C)CC)[C@@H](C)CC)C(=O)N[C@@H](CCCNC(=N)N)C(=O)N[C@H](C(=O)N[C@@H](Cc1c[nH]c2ccccc12)C(=O)N[C@@H](Cc1ccc(O)cc1)C(=O)N[C@@H](CCCNC(=N)N)C(=O)N[C@@H](CCCCN)C(=O)N[C@@H](C)C(=O)N[C@@H](Cc1c[nH]c2ccccc12)C(=O)N[C@@H](Cc1cnc[nH]1)C(=O)N[C@H](C(=O)N[C@@H](CC(C)C)C(=O)NCC(=O)N[C@@H](CCCCN)C(=O)N[C@H](C(N)=O)C(C)C)C(C)C)[C@@H](C)O` (H-HIIKKIRTWYRKAWHVLGKV-NH2): the GI50 is 5 µM and the TGI is 18.4 µM.

Turning to `COc1ccc(OC)c(/C=C2\COc3ccc(O)c(O)c3C2=O)c1`, the GI50 is 3.25 µM and the TGI stood at 12.8 µM.

As for `COc1ccc2c(c1)CCN1CCCc3ccc(OC)cc3C21` (centres undefined), the TGI was over 100 µM.

The compound `CC(=O)OC[C@@]1(C)[C@@H]2[C@@H]3[C@@]4(CO[C@]3(C)C(=O)[C@@]3(O)C[C@H](C)[C@H](OC(C)=O)[C@@H]3[C@H]4OC(C)=O)[C@H](OC(=O)c3ccccc3)C[C@@H]21` registered a TGI of over 100 µM.

Compound `CC(=O)C1=C(C)N2C(=NC3=C(CCc4ccccc43)C2c2cccc(Br)c2)S1` (centres undefined) gave a TGI of over 100 µM.

Take `O=C1/C(=C/c2ccccc2F)CN(C(=O)C(Cl)Cl)C/C1=C\c1ccccc1F`: the GI50 was 1.3 µM and the TGI was determined as 2.58 µM.

The compound `COC(=O)CCc1ccc2c(c1)CC1(Cc3ccccc3C1)C2` had a total growth inhibition concentration (TGI) of over 100 µM.

For the compound `O=NN/C(=C1\Nc2ccc([N+](=O)[O-])cc2NC1=O)C(O)c1ccc([N+](=O)[O-])cc1` (centres undefined), the TGI is over 100 µM.

As for `CCOC(=O)C(=O)Nc1c(CC)cccc1C(C)CC` (centres undefined), the TGI is over 100 µM.

As to `OCCCc1cc(O)c2c(c1)C(CO)C(c1ccc(O)c(O)c1)O2` (centres undefined), the TGI is over 100 µM.

Compound `Cc1cc(O)c(C=NC(=S)c2ccccc2)c(=O)o1` came in with a TGI of over 100 µM.

Regarding `COc1nc(N)nc2c1ncn2[C@@H]1O[C@H](CO)[C@@H](O)[C@@H]1O`, the GI50 is over 100 µM and the TGI was over 100 µM.

As for `CSC1=Nc2c(c(C)c(C)n2COC(CO)CO)C2=NC(=O)CC(C)N12` (centres undefined), the GI50 is over 100 µM and the TGI is over 100 µM.

On to `NC(=O)Nc1c([N+](=O)[O-])cc(C(F)(F)F)cc1[N+](=O)[O-]`, for which the TGI was over 100 µM.

As to `COc1ccc2c(c1)/C(=C\c1c(Cl)n(C)c3ccccc13)C(=O)N2`, the GI50 was 6.56 µM and the TGI stood at 22.1 µM.

Turning to `COC(=O)C(Cc1c(C2Nc3ccccc3C2CC(NC(C)=O)C(=O)OC)[nH]c2ccccc12)NC(C)=O` (centres undefined), the TGI was over 100 µM.

Turning to `O=C(Nc1sccc1S(=O)(=O)c1ccc(Cl)cc1)c1ccccc1`, the TGI was over 100 µM.

Regarding `COc1cc(/C=C2\C(=O)N(c3ccccc3)c3ccccc32)cc(OC)c1OC`, the GI50 was 15.3 µM and the TGI worked out at 31.7 µM.

As to `COc1cc([C@H]2CC(=O)C[C@@H](c3cc(OC)c(OC)c(OC)c3)C23C(=O)c2ccccc2C3=O)cc(OC)c1OC`, the concentration for total growth inhibition (TGI) is over 100 µM.

In turn, `O=C(Nc1cccc([N+](=O)[O-])c1)C(=O)C(C(=O)c1ccccc1F)C1OC(=O)C2C=CC=CC21` (centres undefined) registered a TGI of over 100 µM.

Regarding `C(=NCCCN1CCN(CCCN=Cc2cccc3ccccc23)CC1)c1cccc2ccccc12`, the TGI was over 100 µM.

`OCC1OC2OC3C(CO)OC(OC4C(CO)OC(OC5C(CO)OC(OC6C(CO)OC(OC7C(CO)OC(OC1C(O)C2O)C(O)C7O)C(O)C6O)C(O)C5O)C(O)C4O)C(O)C3O` (centres undefined) (tested in a mixture with another compound) gave a TGI of over 100 µM.

Consider `CCOC(=O)c1nnsc1NN=C(C)C`, for which the TGI was over 100 µM.

As to `CC(=O)OC1Oc2cc(C)c(C)cc2-c2oc(=O)c(-c3ccc(F)cc3)cc21` (centres undefined), the GI50 is 28.8 µM and the total growth inhibition concentration (TGI) was over 100 µM.

Turning to `O=C(O)c1cccc2cccc(C(=O)O)c12.[Hg]`, the GI50 is 17.2 µM and the TGI was 32.5 µM.

With `Cc1nn(-c2ccccc2)c2nc3c(nc12)C1=NCCN1C(c1ccc(Cl)cc1)N3` (centres undefined), the GI50 was 7.55 µM and the TGI turned out to be 20.4 µM.

In turn, `O=C1NC(c2c(Cl)cccc2Cl)Nc2ccccc21` (centres undefined) showed a TGI of over 100 µM.

As to `Cc1c(C(=O)/C=C/c2c(Cl)cccc2Cl)c(=O)n(-c2ccccc2)n1C`, the TGI was over 100 µM.

For the compound `CC1=NN(c2cccc(Cl)c2)C(=N/c2nc3ccccc3s2)/C1=C\c1cccs1`, the TGI was over 100 µM.

`COc1ccc(-c2nc(N3CCOCC3)c3sc(CN(C)c4ncc(C(=O)NO)cn4)cc3n2)cn1`: the 50% growth inhibitory concentration (GI50) is under 0.01 µM and the TGI is 0.146 µM.

For `Cc1ccc([N+](=O)[O-])cc1S(=O)(=O)Nc1ccc(C2=NN(C(=O)c3ccccc3)C(c3cccs3)C2)cc1` (centres undefined), the TGI is over 100 µM.

With `C/C(=C\CCc1ccsc1)CC/C=C(\C)CCCN1CCC(CO)CC1`, the GI50 was 5.05 µM and the TGI was 18.3 µM.

For `COc1c(O)c(O)c2c(c1O)C(=O)c1cc(C)cc(O)c1C2=O`, the concentration for total growth inhibition (TGI) is over 100 µM.

`C/C=N\n1c(C)c(C#N)c(C#N)c1N` registered a TGI of over 100 µM.

Take `O=[N+]([O-])C(=C(N1CCCCC1)N1CCCCC1)/C(Cl)=C(\Cl)[N+](=O)[O-]`: the TGI was determined as 38.1 µM.

Regarding `c1ccc(CN2CCCCC(Sc3ccccc3)CC2)cc1` (centres undefined), the TGI was over 100 µM.

Turning to `Brc1ccccc1C=NC12CC3CC(CC(C3)C1)C2`, the total growth inhibition concentration (TGI) is over 100 µM.

In the case of `O=C1/C(=C/c2ccc(Cl)cc2)N=C(c2ccccc2)N1c1nc2c(Cl)cc(Cl)cc2s1`, the TGI is over 100 µM.
